Measured values reported in publication PMC12136788.
This is one part of the list.

T1: UNK ZnF1-3 (human, UniProt Q9C0B0 31-174)
T1 sequence: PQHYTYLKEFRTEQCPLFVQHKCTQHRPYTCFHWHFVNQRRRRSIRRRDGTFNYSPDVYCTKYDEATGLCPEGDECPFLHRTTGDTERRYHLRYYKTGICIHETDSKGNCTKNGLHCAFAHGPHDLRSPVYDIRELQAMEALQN

B1: 44549034_44549984_1913_CDS_ENSG00000138078_ENST00000409411|human|control|control (ssRNA)
RNA: GGGAGUUCUACAGUCCGACGAUCAUAGCCUUCACCUGUGUCCUUAGCAUGCUCCGCGAUGGCUUCCUUGAGUUUCUCAGUAUAACUUACAAUUCCUUUCAGAGGUACCCGUUCAUCGUUUUCAUAUGCCGUUAUGUGAAUUGACAACAGAGGAUUGAGCAUCA
B2: chr1:163115580:163115581:-_ENSG00000143248_ENST00000313961|hu_hu|motif|central (ssRNA)
RNA: GGGAGUUCUACAGUCCGACGAUCUACAGUCACAUAGUUGCUUCACUUUCAAUAUUCUUAGGAAAUAACCAAAUAAAUGAGCGGCAAAUAUGAGAAACUGAGAGUGUGUGAAUGAAAGAGAGCAACAGAAGGAGGAAAUACAAGCAACAGAGGAUUGAGCAUCA
B3: chr2:203071830:203071831:-_ENSG00000116030_ENST00000392246|hu_mus|FALSE|FALSE (ssRNA)
RNA: GGGAGUUCUACAGUCCGACGAUCAGGGAGCUGAGGUCUGAUCACCAAAAAUCAGCACAACAAAAACAACCAAUAAUGAAUAUUGAACACUAGAAUUCAUAUGUUCUAAGAGAUGGAGUGCCAGUAUUCAAUUUUCAUUUUGAACAACAGAGGAUUGAGCAUCA
B4: chr9:59188957:59188958:-_ENSMUSG00000025235_ENSMUST00000026265|mus_hu|FALSE|FALSE (ssRNA)
RNA: GGGAGUUCUACAGUCCGACGAUCGGCCACCUGCUUGAGGUUAUCAGCACUCUGAGGACUAAGAACUGCACAUGUCUGGAAGAGUUCUAGGGAUUCUUGGAUAUUUCCUUCUAGGCGAAAUAUCAAUGCUUGGACAUAGAUAGCCAACAGAGGAUUGAGCAUCA
B5: chr7:141438946:141438947:+_ENSG00000106028_ENST00000265304|hu_mus|FALSE|FALSE (ssRNA)
RNA: GGGAGUUCUACAGUCCGACGAUCGACGAAAUACCUGUAACACAGGUCUUCGAAACAUGGCUUCUGUUUUUCUUACAACCUAAUCUUUAGGCUUUUCCUAAAGGAAAGAAAGAAAAGAGAAAAAUGAUAAAUCAAGAAACUACACAACAGAGGAUUGAGCAUCA
B6: chr13:95058138:95058139:+_ENSG00000183098_ENST00000377047|hu_hu|motif|central (ssRNA)
RNA: GGGAGUUCUACAGUCCGACGAUCAUUUCUCAUGUUAAAUUAGUCUGAAAAUCAUAUGACAUAGUAGUAUGAUGAUAAAAACGGGGAAGUACAACUUGAAUGAUAUUUUGACCACAUCCAUGCAGGGUGCUAACACUGUGACAUCAACAGAGGAUUGAGCAUCA

Biological target: T1, UNK ZnF1-3
Experiment: nsRBNS (natural sequence RNA bind-n-seq); RBNS binding buffer (assumed for nsRBNS): 25 mM Tris pH 7.5, 150 mM KCl, 3 mM MgCl2, 0.01% Triton X-100, 500 ug/ml BSA, 20 U/ml SUPERase-In, 4 C; UNK is unkempt and MSI1 is Musashi-1; names of the RNAs are library labels; protein concentration not given here; high values mean tight binding

| Binder | binding signal [enrichment R] |
| --- | --- |
| B1 | 0.742 |
| B2 | 1.59 |
| B3 | 1.14 |
| B4 | 1.49 |
| B5 | 0.551 |
| B6 | 1.12 |
